{"source": "paper PMC4336329", "about": "(PLoS ONE, 2015)", "note": "Screen size: about 310,000 compounds; about 2,200 (0.71%) showed an effect of 50% or more. The effect is printed as a negative number. This is one part of the list."}
{"molecular_target": "human ether-à-go-go-related gene (hERG) potassium channel (human, UniProt Q12809)", "sequence (Q12809 whole entry, looked up)": "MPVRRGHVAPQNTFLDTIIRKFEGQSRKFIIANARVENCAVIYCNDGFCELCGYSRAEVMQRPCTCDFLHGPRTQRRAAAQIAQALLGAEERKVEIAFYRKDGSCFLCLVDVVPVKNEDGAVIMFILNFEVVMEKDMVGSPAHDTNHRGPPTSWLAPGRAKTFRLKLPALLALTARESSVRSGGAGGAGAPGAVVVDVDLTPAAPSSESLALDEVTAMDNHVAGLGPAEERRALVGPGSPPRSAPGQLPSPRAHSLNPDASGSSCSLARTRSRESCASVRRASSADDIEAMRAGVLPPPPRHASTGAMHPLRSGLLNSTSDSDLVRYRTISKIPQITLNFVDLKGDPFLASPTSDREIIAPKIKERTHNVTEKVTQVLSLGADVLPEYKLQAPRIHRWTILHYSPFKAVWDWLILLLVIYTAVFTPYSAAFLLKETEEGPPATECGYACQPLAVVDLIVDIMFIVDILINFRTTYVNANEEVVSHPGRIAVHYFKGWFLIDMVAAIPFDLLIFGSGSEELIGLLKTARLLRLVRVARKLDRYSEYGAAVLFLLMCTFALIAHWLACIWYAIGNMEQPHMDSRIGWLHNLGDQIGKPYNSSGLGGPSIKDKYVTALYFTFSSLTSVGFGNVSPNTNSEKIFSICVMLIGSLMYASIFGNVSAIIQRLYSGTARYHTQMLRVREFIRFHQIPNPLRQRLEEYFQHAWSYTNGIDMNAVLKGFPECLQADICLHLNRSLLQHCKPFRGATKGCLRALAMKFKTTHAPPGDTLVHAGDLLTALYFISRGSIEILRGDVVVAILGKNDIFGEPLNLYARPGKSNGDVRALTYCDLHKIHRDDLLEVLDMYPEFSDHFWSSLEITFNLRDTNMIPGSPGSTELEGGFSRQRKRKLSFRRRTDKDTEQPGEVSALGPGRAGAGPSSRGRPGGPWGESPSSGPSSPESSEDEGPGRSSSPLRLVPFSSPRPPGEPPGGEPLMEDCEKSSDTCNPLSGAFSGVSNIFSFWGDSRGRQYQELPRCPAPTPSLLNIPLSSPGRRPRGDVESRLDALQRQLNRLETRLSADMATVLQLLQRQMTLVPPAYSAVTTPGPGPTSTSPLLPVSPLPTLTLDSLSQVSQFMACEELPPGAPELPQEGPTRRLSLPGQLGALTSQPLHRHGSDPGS", "assay": "primary screen, population patch clamp on CHO cells stably expressing hERG", "units": {"hERG current change (%, negative = inhibition) at 1uM": "%"}}
{"smiles": "Cc1ccc(-c2cc(N)n[nH]2)cc1", "hERG current change (%, negative = inhibition) at 1uM": 5.46}
{"smiles": "COc1ccccc1NC(=O)C(=O)NCC(c1ccco1)N1CCc2ccccc21", "note": "(stereo not drawn)", "hERG current change (%, negative = inhibition) at 1uM": 4.21}
{"smiles": "Cc1noc(/C=C/N(C)C)c1S(=O)(=O)N1CCCC(C(=O)NC2CCCCC2)C1", "note": "(stereo not drawn)", "hERG current change (%, negative = inhibition) at 1uM": 5.34}
{"smiles": "O=c1c2cc(Cl)ccc2oc2nc3n(c(=O)c12)CCCS3", "hERG current change (%, negative = inhibition) at 1uM": 3.67}
{"smiles": "O=C(NNc1cccc(Cl)c1)c1cccnc1Cl", "hERG current change (%, negative = inhibition) at 1uM": 18.2}
{"smiles": "O=C(NC1CC1)C1CCC(=O)N1C1CCCC1", "note": "(stereo not drawn)", "hERG current change (%, negative = inhibition) at 1uM": 2.73}
{"smiles": "CCOc1ccc(Nc2cc(C)nc(-n3nc(C)cc3C)n2)cc1", "hERG current change (%, negative = inhibition) at 1uM": 4.76}
{"smiles": "COc1ccc(OC)c(CNC(=O)CCC(=O)N2Cc3cccc(OC)c3Oc3ncccc32)c1", "hERG current change (%, negative = inhibition) at 1uM": 3.4}
{"smiles": "CCOc1ccc(C2CC(=O)n3nc(C45CC6CC(CC(C6)C4)C5)nc3S2)cc1OC", "note": "(stereo not drawn)", "hERG current change (%, negative = inhibition) at 1uM": 6.37}
{"smiles": "Cc1ccc(Nc2n[nH]c(C)c2[N+](=O)[O-])cc1C", "hERG current change (%, negative = inhibition) at 1uM": 15.7}
{"smiles": "Cc1[nH]nc(NCCO)c1[N+](=O)[O-]", "hERG current change (%, negative = inhibition) at 1uM": -3.88}
{"smiles": "O=C1c2ccccc2COc2ccc(O)cc21", "hERG current change (%, negative = inhibition) at 1uM": 17.8}
{"smiles": "O=C(CNC(=O)c1ccco1)N/N=C/c1ccc(O)cc1O", "hERG current change (%, negative = inhibition) at 1uM": 12.9}
{"smiles": "CC#CCOC(=O)c1c(C)nc2sc3c(c2c1N)CCC(O)C3", "note": "(stereo not drawn)", "hERG current change (%, negative = inhibition) at 1uM": 7.48}
{"smiles": "CCc1cc(=O)oc2cc(OC(C)C(=O)NCCCn3ccnc3)ccc12", "note": "(stereo not drawn)", "hERG current change (%, negative = inhibition) at 1uM": 15.2}
{"smiles": "CCN(CC)c1ccc(C=C2C(=O)OC(c3ccccc3)OC2=O)cc1", "note": "(stereo not drawn)", "hERG current change (%, negative = inhibition) at 1uM": 17.9}
{"smiles": "CC(=O)Nc1ccc(S(=O)(=O)NCC2CCC(C(=O)NCCC(C)C)CC2)cc1", "note": "(stereo not drawn)", "hERG current change (%, negative = inhibition) at 1uM": 12.6}
{"smiles": "C1CCC(NC2=NCCC2)CC1.Cl", "hERG current change (%, negative = inhibition) at 1uM": 4.48}
{"smiles": "CC(OC(=O)CNS(=O)(=O)/C=C/c1ccccc1)C(=O)Nc1ccc(S(=O)(=O)N2CCCC2)cc1", "note": "(stereo not drawn)", "hERG current change (%, negative = inhibition) at 1uM": 4.24}
{"smiles": "NC(=O)C1CCN(C(=O)CNC(=O)c2ccccc2)CC1", "hERG current change (%, negative = inhibition) at 1uM": 0.314}
{"smiles": "NC(=O)NC(CC(=O)NCCCc1ccccc1)c1ccccc1Cl", "note": "(stereo not drawn)", "hERG current change (%, negative = inhibition) at 1uM": 12.6}
{"smiles": "C/C(=N\\NC(=O)c1ccncc1)c1cccnc1", "hERG current change (%, negative = inhibition) at 1uM": 17.3}
{"smiles": "Cc1cc(C(=O)O)oc(=O)c1", "hERG current change (%, negative = inhibition) at 1uM": 15}
{"smiles": "CCOC(=O)N1CCC(NC(=O)c2sc3nc4n(c(=O)c3c2C)CCCC4)CC1", "hERG current change (%, negative = inhibition) at 1uM": 7.38}
{"smiles": "COc1ccc(-c2c[n+](CC(=O)OC3CC(C)CCC3C(C)C)c3n2CCC3)cc1.[Cl-]", "note": "(stereo not drawn)", "hERG current change (%, negative = inhibition) at 1uM": -29.9}
{"smiles": "CCCN1CCN(S(=O)(=O)c2ccc(-n3cnnn3)cc2)CC1", "hERG current change (%, negative = inhibition) at 1uM": -7.76}
{"smiles": "Cc1ccnc(NC(=O)c2ccoc2C)c1", "hERG current change (%, negative = inhibition) at 1uM": 3.67}
{"smiles": "O=[N+]([O-])c1ccc(Cl)c(/C=N/N2CCN(Cc3ccccc3)CC2)c1", "hERG current change (%, negative = inhibition) at 1uM": 4.38}
{"smiles": "CN/S(=N/S(=O)(=O)c1ccccc1)c1ccc(C)cc1", "note": "(stereo not drawn)", "hERG current change (%, negative = inhibition) at 1uM": 1.15}
{"smiles": "COc1ccccc1CN(C)C(=O)C1(c2ccc(Cl)cc2)CC1", "hERG current change (%, negative = inhibition) at 1uM": 4.98}
{"smiles": "Cc1nnc(SCC(=O)Nc2ccc(Cl)cn2)s1", "hERG current change (%, negative = inhibition) at 1uM": 15.8}
{"smiles": "COc1ccc(NC(=O)CN(C)C(=O)CNC(=O)c2ccc(C)s2)cc1", "hERG current change (%, negative = inhibition) at 1uM": 12.1}
{"smiles": "Cc1cccc(-n2nc(C)c3c2NC2=C(C(=O)CCC2)C3c2ccccn2)c1", "note": "(stereo not drawn)", "hERG current change (%, negative = inhibition) at 1uM": -1.5}
{"smiles": "CC(=O)N=c1c(C#N)cc2c(=O)n3ccccc3nc2n1Cc1ccccc1", "hERG current change (%, negative = inhibition) at 1uM": -10.2}
{"smiles": "Cc1cccn2c(=O)c3cc(C(=O)NC4CCCCC4)n(C)c3nc12", "hERG current change (%, negative = inhibition) at 1uM": 13.8}
{"smiles": "O=C1C=C(c2ccc(-c3ccccc3)c(F)c2)C[C@@H](c2ccc(Cl)cc2)C1", "hERG current change (%, negative = inhibition) at 1uM": 14.2}
{"smiles": "O=C(O)C1CCCCC1C(=O)Nc1ccc(S(=O)(=O)N2CCCC2)cc1", "note": "(stereo not drawn)", "hERG current change (%, negative = inhibition) at 1uM": 12.9}
{"smiles": "COc1ccc(CCNC(=O)CSc2ccc(Br)cc2)cc1OC", "hERG current change (%, negative = inhibition) at 1uM": 1.45}
{"smiles": "NC(=O)NNc1ncc(C(F)(F)F)cc1Cl", "hERG current change (%, negative = inhibition) at 1uM": 3.81}
{"smiles": "COc1ccccc1Nc1nnc(SCC(=O)N2CCCC2=O)s1", "hERG current change (%, negative = inhibition) at 1uM": 2.93}
{"smiles": "Cc1ccccc1N(CC(=O)NCC1CCCO1)C(=O)CCC(=O)Nc1nccs1", "note": "(stereo not drawn)", "hERG current change (%, negative = inhibition) at 1uM": 21.7}
{"smiles": "Cc1[nH]c2ccccc2c1C(=O)COc1ccccc1", "hERG current change (%, negative = inhibition) at 1uM": 10.9}
{"smiles": "Cc1cc(C)c(OCCN2CCOCC2)c(Cl)c1", "hERG current change (%, negative = inhibition) at 1uM": 12.1}
{"smiles": "CN(Cc1ccccc1)C(=O)c1oc(=O)c2ccccc2c1-c1ccccc1", "hERG current change (%, negative = inhibition) at 1uM": 2.77}
{"smiles": "CC(C)(C)NNC(=S)Nc1ccc(S(=O)(=O)N2CCOCC2)cc1", "hERG current change (%, negative = inhibition) at 1uM": 14.9}
{"smiles": "Oc1c(C=C2N=c3ccccc3=N2)sc(=S)n1-c1ccc2ccccc2c1", "hERG current change (%, negative = inhibition) at 1uM": 2.05}
{"smiles": "CC(C)c1ccc(C(=O)N/N=C/c2cccc(Cl)c2Cl)cc1", "hERG current change (%, negative = inhibition) at 1uM": 11.4}
{"smiles": "CC(C)C(C(=O)Nc1ncn[nH]1)N1C(=O)c2ccccc2C1=O", "note": "(stereo not drawn)", "hERG current change (%, negative = inhibition) at 1uM": 15.2}
{"smiles": "CCOc1ccc(C2C(C#N)=C(N)Oc3cc(C)[nH]c(=O)c32)cc1OC", "note": "(stereo not drawn)", "hERG current change (%, negative = inhibition) at 1uM": 2.61}
{"smiles": "Cc1n[nH]c(C)c1S(=O)(=O)N1CCC(C(=O)Nc2cccc(F)c2)CC1", "hERG current change (%, negative = inhibition) at 1uM": 1.68}
{"smiles": "O=C(COc1ccc(Cl)cc1)NCCC1=CCCCC1", "hERG current change (%, negative = inhibition) at 1uM": 9.28}
{"smiles": "CCc1ccc(N(C(=O)c2csnn2)C(C(=O)NC(C)(C)C)c2ccncc2)cc1", "note": "(stereo not drawn)", "hERG current change (%, negative = inhibition) at 1uM": 7.8}
{"smiles": "CCOc1ccc(N2CC(C(=O)NC3CCCC3)CC2=O)cc1", "note": "(stereo not drawn)", "hERG current change (%, negative = inhibition) at 1uM": -1.88}
{"smiles": "CC(/C=C/c1cccc([N+](=O)[O-])c1)=N/NC(=O)c1cccnc1", "hERG current change (%, negative = inhibition) at 1uM": -8.4}
{"smiles": "O=c1cc(O)nc(-c2ccc(Cl)cc2)s1", "hERG current change (%, negative = inhibition) at 1uM": 9.51}
{"smiles": "N#CC1=C(SCc2ccccc2)NC(=O)CC1c1ccc(O)cc1", "note": "(stereo not drawn)", "hERG current change (%, negative = inhibition) at 1uM": -0.029}
{"smiles": "O=C(Oc1cccc([N+](=O)[O-])c1)c1ccc2c(=O)n3c(nc2c1)CCC3", "hERG current change (%, negative = inhibition) at 1uM": -0.88}
{"smiles": "Cc1ccccc1Nc1nc2ccccc2s1", "hERG current change (%, negative = inhibition) at 1uM": 7.12}
{"smiles": "CCN1C(=O)/C(=C\\C=C2/C=CC=CN2CC)SC1=S", "hERG current change (%, negative = inhibition) at 1uM": 9.62}
{"smiles": "COc1cccc(C(=O)NN2C(=O)C3C4C=CC(O4)C3C2=O)c1", "note": "(stereo not drawn)", "hERG current change (%, negative = inhibition) at 1uM": 17.7}
